Several values for one entry are separate records, joined by “and”; a condition that tells them apart may be missing. Identical values can stand only once. In all, about 420,000 compounds went through this assay and about 50,000 (12%) were called active. The shares of active, inactive and inconclusive entries below differ from those in the screen. Calls follow the shape of the dose curve; as a rule, active = well fitted inhibition curve with a large enough effect; inconclusive = small, poorly fitted or top-dose-only effect; inactive = flat fitted curve, though single readings scatter. Potencies of inconclusive entries are doubtful fits and often do not repeat.
Assay: qHTS for Inhibitors of human tyrosyl-DNA phosphodiesterase 1 (TDP1): qHTS in cells in presence of CPT; also: nearly all actives have a fitted effect of over 55% in size
Conditions: chicken DT40 Tdp1-/-;hTDP1 cells + 20 nM CPT, ATP luminescence, 48 h; activity change, negative = growth inhibition: at 46.2 µM (top of the series) unless noted
Summary of the method: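 Chicken DT40 Tdp1-/- cells stably complemented with human TDP1 were seeded at 400 cells/well in medium containing 20 nM camptothecin, exposed to pin-transferred compounds, and grown at 37 °C for at least 48 hr. Viability was read as ATP luminescence.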
% is scaled to controls: 0 for no effect and ±100 for the full control effect; potency is read from the fitted curve at half-maximal effect; tags tell the direction and shape of the fitted curve.

Row | Structure (SMILES) | Potency | activity change, negative = growth inhibition
1 | FC(F)(F)c1nnc2c(Sc3ccccn3)nc3ccccc3n12 | active: 5.17 µM | –
2 | Cc1c(C(=O)Nc2cc(S(=O)(=O)N3CCOCC3)ccc2N2CCN(C)CC2)oc2ccccc12 | inconclusive: 29.1 µM [inhibitor, single point] | –
3 | COc1ccccc1N1CCN(C(=O)c2cc3c(C)nc4ccccc4c3o2)CC1 | active: 6.51 µM | –
4 | O=C(Cc1ccccc1F)N1CCC(c2nc3c(nnn3Cc3cccc(Cl)c3)c(=O)[nH]2)CC1 | inconclusive: 25.9 µM [inhibitor, single point] | –
5 | Cc1cc(C)cc(OCCn2c(CCNC(=O)C3CCCCC3)nc3ccccc32)c1 | inconclusive: 22.4 µM [inhibitor, single point] | –
6 | O=C(/C=C/c1cccnc1)c1cccc(O)c1 | active: 2.91 µM | –
7 | CCOC(=O)c1c(NC(=O)C(F)(OC)C(F)(F)F)sc2c1CCN(C)C2 (stereo not drawn) | – | inactive: -22.9%
8 | Cc1ccc(-n2c(-c3ccco3)nc3c(cnn3-c3ccc(C)cc3)c2=O)cc1 | inconclusive: 6.51 µM [inhibitor, single point] and inconclusive: 5.17 µM [inhibitor, full curve] | –
9 | COc1ccccc1N1CCN(S(=O)(=O)CCNC(=O)CC2CCCC2)CC1 | inconclusive: 29.1 µM [inhibitor, single point] | –
10 | CCc1ccc(N2CC(C(=O)N3CCN(c4ccccn4)CC3)CC2=O)cc1 (stereo not drawn) | inconclusive: 29.1 µM [inhibitor, single point] | –
11 | CCN1CCN(c2nc(Nc3ccc(OC)cc3)nc(N)c2[N+](=O)[O-])CC1 | inconclusive: 29.1 µM [inhibitor, single point] | –
12 | Cc1ccc2c(c1)C(=O)C(=O)N2CC(=O)Nc1ccccc1NC(=O)c1ccccn1 | active: 5.17 µM | –
13 | O=C(CC1(O)C(=O)N(Cc2ccccc2)c2ccc(Br)cc21)c1ccccc1 (stereo not drawn) | active: 14.6 µM | –
14 | CCOc1ccc(Nc2nc(Cc3nnc(SCC(=O)c4ccc(C)c(C)c4)o3)cs2)cc1 | active: 29.1 µM | –
15 | CSc1ccc(CN(C)Cc2nc3cc(C(F)(F)F)ccc3c(=O)[nH]2)cc1 | inconclusive: 32.6 µM [inhibitor, single point] | –
16 | CCCOc1cccc(C2C(C(=O)c3ccco3)=C(O)C(=O)N2CCCn2ccnc2)c1 (stereo not drawn) | – | inactive: 7.27%
17 | Cc1nn2cnnc2c(C)c1Cc1ccc(Cl)cc1 | inconclusive: 29.1 µM [inhibitor, single point] | –
18 | O=C(COC(=O)c1ccc(O)cc1O)Nc1ncc(Cl)cc1Cl | – | inactive: -11.8%
19 | O=C(CNC(=O)c1ccc(F)cc1)c1ccc(Cl)cc1 | inconclusive: 25.9 µM [inhibitor, single point] | –
20 | CC(C)(C)NC(=O)NC(=O)C[n+]1ccc(Cc2ccc([N+](=O)[O-])cc2)cc1 | active: 4.11 µM | –
21 | C#Cc1cccc(Nc2nc(NCCOC)nc3ccsc23)c1 | active: 16.4 µM | –
22 | Nc1nc2c(Br)ccc(Br)c2cc1C(=O)NCc1cccc2ccccc12 | inconclusive: 29.1 µM [inhibitor, single point] | –
23 | CCOc1ccc(NC(=O)c2c(NC(=O)c3ccccc3Br)sc3c2CCC(C)C3)cc1 (stereo not drawn) | inconclusive: 0.0052 µM [inhibitor, full curve, poor fit] | –

Row | Structure (SMILES) | Potency | activity change, negative = growth inhibition
24 | CCOc1cccc(Oc2ccc(C(F)(F)F)cn2)c1 | – | inactive: -3.99%
25 | COc1cc(Cl)ccc1NC(=S)N(CCCN1CCOCC1)Cc1cn(C)c2ccccc12 | active: 16.4 µM | –
26 | O=C(N/N=C/c1ccc[nH]1)c1sc2ccccc2c1Cl | active: 13 µM | –
27 | CCOc1ccc(S(=O)(=O)NCC2CCCO2)cc1 (stereo not drawn) | – | inactive: 14.8%
28 | N=c1c(S(=O)(=O)c2ccccc2)cc2c(=O)n3ccccc3nc2n1C1CCCCC1 | active: 25.9 µM | –
29 | COc1ccc(CCNC(=O)[C@H](CC(C)C)NC(=O)N2CCn3c2nc2ccccc23)cc1OC | – | inactive: -64.2%
30 | Cc1cccc(-n2ncc3c(NCc4cccs4)ncnc32)c1 | inconclusive: 20.6 µM [inhibitor, single point] | –
31 | Cn1c(=O)c(S(=O)C2CCCCC2)c(O)c2ccccc21 (stereo not drawn) | – | inactive: -7.05%
32 | Cc1cc2nc(/N=C(\N)NC(=O)N3c4ccccc4Sc4ccccc43)nc(C)c2cc1C | inconclusive: 11.6 µM [inhibitor, partial curve] and inconclusive: 20.6 µM [inhibitor, single point] | –
33 | C(=Nc1cccnc1)c1ccc2ccccc2n1 | active: 0.891 µM | –
34 | O=C(NNC(=O)c1ccc(Oc2cc(Cl)cc(Cl)c2)o1)c1ccccc1 | inconclusive: 29.1 µM [inhibitor, single point] | –
35 | COC(=O)C1=C(C)N(Cc2ccc(OC)c(OC)c2)C(=O)C1 | inconclusive: 25.9 µM [inhibitor, single point] | –
36 | CCOc1ccc(NC(=O)CC2C(=O)N(c3ccc(C)cc3)C(=O)N2Cc2ccc(OC)cc2)cc1 (stereo not drawn) | inconclusive: 23.1 µM [inhibitor, single point] | –
37 | CCCCn1c(-c2cccc3ccccc23)nc2cc3[nH]c(=O)c(C(C)C)nc3cc21 | inconclusive: 29.1 µM [inhibitor, single point] | –
38 | CCCCn1c(N)c(N(CCC(C)C)C(=O)C2CC(=O)N(c3ccccc3OCC)C2)c(=O)[nH]c1=O (stereo not drawn) | – | inactive: -14.6%
39 | CC1CCCCN1CCNC(=O)c1ccc2c(c1)N(Cc1ccccc1)C(=O)c1ccccc1S2(=O)=O (stereo not drawn) | inconclusive: 20.6 µM [inhibitor, single point] | –
40 | COc1ccc(C(=O)NCC(=O)N=Nc2c(O)n(Cc3ccccc3)c3ccccc23)cc1OC | inconclusive: 29.1 µM [inhibitor, single point] | –
41 | Cc1nc(-c2cccc(F)c2)sc1CCNC(=O)C(=O)Nc1ccc2c(c1)OCO2 | inconclusive: 29.1 µM [inhibitor, single point] | –
42 | CCOC(=O)CN1C(=O)N[C@@H](CCc2ccccc2)[C@H](C(C)=O)[C@H]1C | inconclusive: 25.9 µM [inhibitor, partial curve, poor fit] | –
43 | COc1cccc(Nc2nnc(SCC(=O)Nc3sccc3C(N)=O)s2)c1 | active: 13 µM | –
44 | O=C(N=Nc1c(O)n(Cc2ccccc2)c2ccccc12)c1ccc(O)cc1 | inconclusive: 29.1 µM [inhibitor, single point] | –
45 | Cc1sc2nc(-c3ccccn3)[nH]c(=O)c2c1-c1ccccc1 | active: 9.2 µM | –
46 | Cc1ccc(-c2nc3ncccc3o2)cc1NC(=O)c1ccc(-c2cccc(Cl)c2C)o1 | inconclusive: 6.51 µM [inhibitor, single point] | –

Row | Structure (SMILES) | Potency | activity change, negative = growth inhibition
47 | Fc1cccc(CN(C2=NCCN2)c2c(Cl)cccc2Cl)c1 | inconclusive: 18.4 µM [inhibitor, single point] | –
48 | Cc1ccccc1-c1ccccc1CN1[C@@H](C(C)C)COCCS1(=O)=O | inconclusive: 16.4 µM [inhibitor, partial curve, poor fit] | –
49 | Cn1ccc2c(N(c3ccccc3)C3CCCCC3)cc3c(c21)C1CCC3O1 (stereo not drawn) | inconclusive: 11.6 µM [inhibitor, partial curve, poor fit] | –
50 | Cc1cccc(N2CCN(c3ncnc4onc(C)c34)CC2C)c1 (stereo not drawn) | active: 4.61 µM | –
51 | CCc1cccc(C)c1NC(=O)c1cn2c3c(ccc(Cl)c3c1=O)OC(C)C2 (stereo not drawn) | inconclusive: 16.4 µM [inhibitor, single point] | –
52 | COc1ccc(CN2CCNC(=O)C2CC(=O)O)c(OC)c1 (stereo not drawn) | – | inactive: -0.954%
53 | Cc1cccc(NC(=O)c2ccc([N+](=O)[O-])cc2Cl)n1 | inconclusive: 10.3 µM [inhibitor, partial curve] | –
54 | CCOc1ccc(NC(=S)N2CCC(C(=O)c3ccc(F)cc3)CC2)cc1 | inconclusive: 29.1 µM [inhibitor, single point] | –
55 | COc1ccc(S(=O)(=O)N2CCCCCC2)cc1C(=O)NCCc1ccccc1 | inconclusive: 23.1 µM [inhibitor, partial curve] | –
56 | CN(C)C(=S)NC(=O)C12CC3CC(C)(CC(C)(C3)C1)C2 | inconclusive: 29.1 µM [inhibitor, single point] | –
57 | Cc1ccccc1OCC(=O)NCCNC(=O)c1ccncc1 | – | inactive: -13%
58 | CCc1nc2c(OCc3ccc(F)c(F)c3)cccn2c1N(C)C(=O)c1ccc(OC)cc1 | active: 16.4 µM | –
59 | COc1cc(C(=O)NCC(=O)N/N=C/c2ccccn2)cc(OC)c1OC | – | inactive: 14.2%
60 | CC1CC(C)CN(c2nc3c(c(=O)n(C)c(=O)n3C)n2CCSc2nc3ccccc3o2)C1 (stereo not drawn) | active: 18.4 µM | –
61 | CCOc1ccc(S(=O)(=O)NCC(c2ccc(N(C)C)cc2)N2CCc3ccccc32)cc1 (stereo not drawn) | inconclusive: 16.4 µM [inhibitor, partial curve] | –
62 | O=C(Cc1ccccc1)NC(NNc1ccccc1)(C(F)(F)F)C(F)(F)F | inconclusive: 16.4 µM [inhibitor, single point] | –
63 | CCCNC(=O)C1(C)CCCN(Cc2ccc(Cl)cc2)C1 (stereo not drawn) | inconclusive: 16.4 µM [inhibitor, single point] | –
64 | CCOC(=O)c1c(NC(=O)CSc2nnnn2-c2ccc3c(c2)OCCO3)sc(C)c1C | inconclusive: 18.4 µM [inhibitor, single point] | –
65 | O=c1c2cc(NC(=S)NC3CCCCC3)ccc2nc2n1CCCCC2 | active: 18.4 µM | –
66 | Cc1cc(O)c(C(=O)/C=C/c2cccc([N+](=O)[O-])c2)c(=O)o1 | inconclusive: 29.1 µM [inhibitor, single point] | –
67 | CCC(=O)N1Cc2cc(C(=O)Nc3nccs3)nc(-c3cccc(-c4ccccc4OC)c3)c2[C@@H]1CCO | active: 4.61 µM | –
68 | CN1CCC(=O)N([C@H](CSc2ccccc2)c2ccccc2)CC1 | inactive and inconclusive: 22.4 µM [inhibitor, single point] | –

Reference: PubChem BioAssay AID686979 (National Center for Advancing Translational Sciences (NCATS), 2013)
